Experimental data: the supplement of paper PMC12217912
This is one part of the list. The full chains were built here from the parent and the listed change. Inactive controls read about 0.05.

B1: TEV protease; numbered along this chain (parent)
chain: MGESLFKGPRDYNPISSSICHLTNESDGHTTSLYGIGFGPFIITNKHLFRRNNGTLVVQSLHGVFKVKDTTTLQQHLVDGRDMIIIRMPKDFPPFPQKLKFREPQREERICLVTTNFQTKSMSSMVSDTSCTFPSGDGIFWKHWIQTKDGQCGSPLVSTRDGFIVGIHSASNFTNTNNYFTSVPKNFMELLTNQEAQQWVSGWRLNADSVLWGGHKVFMVKPEEPFQPVKEATQL

Variants of: B1
Assay: raw area under fraction-flipped curve 0-4 h after induction (AUC4h, not background-subtracted), DNA-recorder readout of cleavage of the substrate (dimensionless); higher = more cleavage of the substrate by the protease variant
Conditions: temperature: 34 °C; time window: 0-4 h after rhamnose induction
Method: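 In vivo DNA recorder in E. coli TOP10(DE3) ΔrhaA at 34 °C. Each TEVp single-site mutant (parent TEVp 0) is paired with a single-site variant of the 7-mer TEVs (canonical ENLYFQ|S). The substrate sits between flexible linkers in a Bxb1-sfGFP-TEVs-SsrA fusion, so cleavage stabilises Bxb1 and speeds flipping of a recombination array, read by NGS. The value is the raw area under the fraction-flipped curve over 0-4 h after rhamnose induction (AUC4h), with ≥20 reads per time point. It is not background-subtracted; inactive controls average about 0.047.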
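Also: Bxb1 expression induced with 0.2% (w/v) L-rhamnose at OD600 near 0.5, cultures sampled hourly, flipped fraction per protease–substrate barcode pair counted by paired-end Illumina sequencing.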

Row | Variant | area with substrate CNLYFQS | area with substrate FNLYFQS | area with substrate HNLYFQS | area with substrate MNLYFQS | area with substrate NNLYFQS | area with substrate SNLYFQS | area with substrate WNLYFQS | area with substrate YNLYFQS | area with substrate DNLYFQS | area with substrate INLYFQS | area with substrate RNLYFQS | area with substrate GNLYFQS | area with substrate KNLYFQS | area with substrate LNLYFQS | area with substrate PNLYFQS | area with substrate TNLYFQS | area with substrate VNLYFQS | area with substrate QNLYFQS
1 | P40W | 0.0597 | 0.0634 | 0.0583 | 0.0672 | 0.0553 | 0.0636 | 0.0472 | 0.0668 | – | – | – | – | – | – | – | – | – | –
2 | S32K | 0.0502 | 0.0652 | – | 0.0807 | – | – | – | 0.0525 | 0.0714 | 0.0488 | 0.0607 | – | – | – | – | – | – | –
3 | N45W | 0.0549 | – | 0.0575 | 0.0309 | 0.051 | 0.058 | 0.0588 | 0.0568 | 0.0601 | 0.0534 | 0.0678 | 0.0647 | 0.0148 | 0.0923 | 0.058 | 0.056 | 0.0548 | –
4 | L56R | 0.0466 | 0.0435 | 0.0504 | – | – | – | – | 0.0506 | 0.044 | 0.0475 | – | – | 0.0584 | – | – | 0.0493 | 0.047 | 0.049
5 | V64I | 0.0668 | – | 0.0664 | 0.0607 | – | 0.106 | 0.0533 | – | – | – | – | – | – | – | 0.051 | 0.0758 | – | –
6 | K221E | 0.0557 | 0.0599 | 0.0687 | – | – | 0.0583 | 0.0591 | – | 0.0606 | 0.056 | – | 0.0478 | 0.0729 | 0.0595 | 0.0555 | 0.052 | 0.0591 | 0.0441
7 | A232Q | 0.0751 | – | 0.0674 | 0.0579 | – | 0.0595 | 0.0663 | – | – | – | – | – | 0.0619 | 0.0585 | – | – | 0.0655 | 0.0456
8 | P104C | 0.0669 | 0.0555 | 0.0681 | 0.0312 | 0.0604 | 0.0671 | 0.0601 | 0.0737 | 0.077 | 0.0666 | – | 0.0869 | 0.0731 | 0.0539 | 0.0584 | 0.0606 | 0.0636 | –
9 | D128Q | 0.0939 | 0.0622 | 0.0756 | 0.0787 | 0.0773 | 0.0783 | 0.0667 | 0.0587 | 0.0909 | 0.0643 | – | – | 0.0716 | 0.0578 | 0.101 | 0.0737 | 0.0713 | 0.124
10 | I19G | 0.0641 | 0.0611 | 0.0569 | 0.0599 | 0.0516 | – | 0.0603 | 0.0569 | 0.0689 | – | 0.0508 | – | 0.0575 | 0.05 | 0.0603 | 0.0581 | 0.0606 | 0.0592
11 | G136A | 0.0543 | – | – | – | 0.0746 | 0.0677 | 0.0628 | 0.0653 | – | – | – | – | – | – | – | 0.0411 | – | –
12 | L112G | 0.0605 | – | – | – | 0.0027 | 0.0626 | – | 0.0563 | – | 0.0557 | – | – | 0.0527 | – | 0.0534 | 0.0617 | – | –
13 | P184Y | 0.0583 | 0.0569 | 0.0439 | – | – | 0.0305 | 0.0638 | 0.0601 | – | 0.0593 | – | – | 0.0574 | 0.0601 | 0.0404 | 0.054 | – | –
14 | T192R | 0.0544 | – | 0.06 | – | – | 0.0713 | 0.0558 | 0.0539 | 0.0947 | 0.0574 | – | 0.06 | – | 0.0758 | – | 0.0578 | 0.073 | 0.0644
15 | D208W | 0.0607 | – | 0.0527 | 0.0545 | – | – | 0.0582 | – | 0.0528 | 0.0514 | 0.0538 | 0.0693 | 0.0704 | 0.052 | 0.0846 | 0.0614 | 0.0551 | –
16 | T176G | 0.046 | 0.0611 | 0.0547 | – | – | – | 0.0574 | 0.0592 | – | – | – | – | 0.0704 | 0.0541 | 0.0601 | – | 0.0604 | –
17 | L56H | 0.0286 | 0.058 | 0.0402 | 0.0251 | – | 0.0498 | 0.0624 | – | – | 0.0562 | – | – | 0.0462 | 0.0555 | – | 0.0516 | – | –
18 | P96A | 0.0647 | 0.0603 | – | 0.0879 | – | 0.0683 | 0.0903 | – | 0.0584 | 0.0797 | 0.0655 | – | 0.0759 | – | 0.0759 | 0.0722 | – | –
19 | T72E | 0.0696 | 0.0558 | – | – | – | 0.0601 | 0.0474 | – | – | – | – | – | 0.0669 | – | 0.0251 | 0.072 | – | –
20 | N24G | 0.066 | 0.0679 | 0.0595 | 0.0564 | 0.0567 | 0.0633 | 0.0621 | 0.0595 | 0.0521 | 0.0612 | 0.0528 | 0.0604 | – | 0.072 | 0.0554 | 0.0563 | 0.0633 | 0.0643
21 | H168V | 0.0595 | – | 0.0738 | 0.0467 | 0.0571 | – | 0.0614 | 0.0588 | – | – | 0.0435 | – | 0.0674 | 0.0758 | 0.0626 | 0.0546 | – | 0.0516
22 | L112M | 0.0848 | – | 0.0621 | 0.0626 | – | 0.0646 | 0.0626 | 0.0763 | – | – | – | – | 0.0585 | 0.0704 | 0.0674 | 0.0695 | – | –
23 | V220Q | 0.101 | – | 0.0615 | 0.0765 | – | 0.0892 | 0.0671 | 0.0672 | 0.0867 | 0.0658 | 0.079 | 0.0767 | 0.0852 | 0.0696 | 0.0717 | 0.0609 | 0.0751 | 0.0731
24 | P104S | 0.0491 | – | 0.0587 | – | 0.0477 | 0.0547 | 0.0419 | – | – | 0.0446 | – | 0.0499 | 0.0522 | 0.0399 | 0.0546 | 0.0563 | – | –
25 | P184K | 0.0597 | 0.0594 | 0.0701 | 0.0587 | 0.0674 | – | – | 0.0496 | 0.0669 | – | – | 0.0617 | – | – | 0.0567 | 0.0659 | – | –
26 | I42S | 0.0527 | 0.0457 | 0.0517 | 0.0522 | 0.0481 | 0.0553 | 0.0456 | 0.0411 | 0.0501 | 0.0508 | 0.0458 | 0.0499 | 0.0567 | 0.041 | 0.0529 | 0.0427 | 0.0505 | –
27 | H21T | 0.0553 | 0.0668 | 0.061 | 0.0569 | 0.0614 | 0.0483 | 0.0551 | 0.0622 | 0.0786 | 0.0795 | 0.058 | 0.0669 | 0.0599 | 0.0629 | 0.0687 | 0.063 | 0.0714 | –
28 | K120D | 0.0767 | 0.0623 | 0.0632 | 0.0595 | – | 0.0712 | 0.0662 | – | – | 0.0635 | – | – | – | – | 0.0659 | – | – | 0.0757
29 | T132M | 0.0645 | – | 0.0599 | – | 0.0617 | 0.0757 | – | – | 0.089 | 0.0636 | 0.073 | 0.0726 | 0.0429 | – | 0.0529 | 0.0721 | 0.0627 | –
